Laboratory results: PubChem BioAssay AID2675 (National Center for Advancing Translational Sciences (NCATS), 2010)
“And” between values parts separate entries of the source, which are not always exact repeats. Identical values can stand only once. The campaign covered roughly 280,000 compounds. About 100 (0.036%) were called active. Inconclusive means that the source gave no clear call. Such entries were picked first, then a sample of the others. The call rests on the fitted dose curve; in most records, active means well fitted inhibition curve with a large enough effect in the signal ratio, with a control signal flat (not every such curve was filed as active); inconclusive means small, poorly fitted or top-dose-only effect, or effect the other way, or a change in a side signal; inactive means no such curve, though single readings can be large or run the other way; the % refers to the signal ratio. A potency beside an inconclusive call is a rough fit, not a confirmed value. A note “side channel” means that the fit belongs to a control or component signal, not to the main read-out.

Each molecule was assayed against Muscleblind-like protein 1 (Homo sapiens) (UniProt Q9NR56) (assay: qHTS Assay for Inhibitors of MBNL1-poly(CUG) RNA binding). Settings: TR-FRET MBNL1-His/biotin-(CUG)12 binding, 665/545 ratio; activity change, negative = inhibition: at 57.5 µM (top of the series).
Summary of the method: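 TR-FRET readout: Ex 340 nm, 665/545 nm emission ratio, normalized to buffer-only (basal) and MBNL1-(CUG)12 controls. Complex of MBNL1-His with Biotin-(CUG)12, compounds 92 nM–58 uM, incubated 60 min at room temperature.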
On the % scale 0 is the no-effect control and ±100 the full control effect; potency means the concentration at half of the fitted maximal effect; tags describe the fitted curve by direction and shape or compound fluorescence and quenching.

Chain of UniProt Q9NR56 (Q9NR56 whole entry, looked up): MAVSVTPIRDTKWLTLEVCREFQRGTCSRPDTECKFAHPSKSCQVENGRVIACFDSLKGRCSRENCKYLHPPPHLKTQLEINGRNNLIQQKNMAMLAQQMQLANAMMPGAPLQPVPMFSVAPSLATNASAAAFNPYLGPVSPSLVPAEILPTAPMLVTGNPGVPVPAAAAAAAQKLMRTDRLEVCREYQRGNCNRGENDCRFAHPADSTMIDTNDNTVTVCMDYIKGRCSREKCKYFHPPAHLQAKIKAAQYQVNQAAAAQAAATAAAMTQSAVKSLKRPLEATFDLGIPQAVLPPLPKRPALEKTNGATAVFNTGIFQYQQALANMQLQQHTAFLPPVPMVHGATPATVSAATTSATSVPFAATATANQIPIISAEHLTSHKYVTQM

| Compound | Potency | activity change, negative = inhibition |
| --- | --- | --- |
| C/C(=N\Nc1ccc(Cl)cc1)c1ccncc1 | inconclusive: 39.8 µM [quencher, side channel, single point] | – |
| COC(=O)CN1C(c2ccc(Cl)cc2)=Nc2ccc(Cl)cc2C1c1ccccc1 (stereo not drawn) | – | inactive: -15.4% |
| O=[N+]([O-])c1ccc(-c2c[nH]c(=S)[nH]2)cc1 | inconclusive: 11.2 µM [quencher, side channel, partial curve] | – |
| Cc1cccc(N=c2oc3cc(O)ccc3cc2C(N)=O)c1 | inconclusive: 25.1 µM [quencher, partial curve] | – |
| O=C(NCC(c1cccs1)N1CCOCC1)c1ccc([N+](=O)[O-])cc1 (stereo not drawn) | inconclusive: 11.2 µM [quencher, side channel, partial curve] | – |
| O=C1c2ccccc2-c2cccc(C(=O)N3CCCCC3)c21 | inconclusive: 10 µM [quencher, side channel, partial curve] | – |
| Cc1nc2oc(C(=O)c3ccccc3)c(N)c2c2c1COC(C)(C)C2 | inconclusive: 35.5 µM [quencher, side channel, partial curve] | – |
| CCCC(=O)Nc1ccc(C(=O)Nc2nnc(COCC)s2)cc1 | inconclusive: 7.08 µM [quencher, side channel, single point] | – |
| Cc1ccsc1/C=C1/C(=O)NN(c2ccccc2)C1=O | inconclusive: 35.5 µM [quencher, side channel, single point] | – |
| COCCCn1c(=O)/c(=C\c2ccccc2OC(F)F)s/c1=C(/C#N)C(N)=O | inconclusive: 2.82 µM [quencher, side channel, partial curve] | – |
| CSc1ccccc1-n1nnnc1SCC(=O)Nc1ccccc1C | inconclusive: 7.08 µM [quencher, side channel, single point] | – |
| Cc1cc(C)cc(NC(=S)N2CCN(c3ccc(F)cc3)CC2)c1 | – | inactive: -5.56% |
| CC(=O)N1CCN(c2ccc(NC(=O)c3cccc([N+](=O)[O-])c3)cc2)CC1 | inconclusive: 15.8 µM [quencher, side channel, partial curve] | – |
| O=C(NCCc1c[nH]c2ccccc12)c1ccc([N+](=O)[O-])cc1 | inconclusive: 2.82 µM [quencher, side channel, full curve] | – |
| O=C(CNc1ccc2ccccc2c1)NNC1=NCCC1 | – | inactive: 5.81% |
| Cc1cc(=O)[nH]c(N/N=C/c2ccc(O)c(O)c2)n1 | inconclusive: 25.1 µM [quencher, side channel, partial curve] | – |
| CCOc1ccc(N2C(=O)CC(NCCNc3ccc(C(=O)c4cccs4)cc3)C2=O)cc1 (stereo not drawn) | inconclusive: 20 µM [quencher, side channel, single point] | – |
| NS(=O)(=O)c1ccc(O)c(N2C(=O)c3cccc4c(C(=O)c5ccccc5)ccc(c34)C2=O)c1 | inconclusive: 14.1 µM [quencher, side channel, partial curve] | – |
| CC(C)N1CC=C2C(C#N)=C(N)C(C#N)(C#N)C(c3ccccc3)C2C1 (stereo not drawn) | inconclusive: 39.8 µM [quencher, single point] | – |
| Cc1n[nH]c(C)c1NC(=O)c1cc([N+](=O)[O-])ccc1Cl | inconclusive: 17.8 µM [quencher, side channel, partial curve] | – |

| Compound | Potency | activity change, negative = inhibition |
| --- | --- | --- |
| O=C(CSc1nc2ncc(Br)cc2[nH]1)c1ccc([N+](=O)[O-])cc1 | inconclusive: 14.1 µM [quencher, side channel, partial curve] | – |
| O=C(C1CCCO1)N1CCN(S(=O)(=O)c2ccccc2)CC1 (stereo not drawn) | inconclusive: 25.1 µM [quencher, side channel, single point] | – |
| O=C(Cc1cc(=O)[nH][nH]1)N/N=C/C(Cl)=C/c1ccccc1 | inconclusive: 14.1 µM [quencher, side channel, partial curve] and inconclusive: 15.8 µM [quencher, side channel, partial curve] | – |
| C=C(C)C1CC=C(C)/C(=N/NC(=S)Nc2ccccc2)C1 (stereo not drawn) | – | inactive: 0.594% |
| O=C(CSc1nncn1-c1cccnc1)Nc1ccccc1[N+](=O)[O-] | inconclusive: 17.8 µM [quencher, side channel, partial curve] | – |
| COc1ccc(CCN(C)C(=O)c2cc(=O)c3ccccc3o2)cc1OC | inconclusive: 31.6 µM [quencher, side channel, partial curve] | – |
| CCn1c(O)c(N=Nc2ccc(Cl)c(C(=O)O)c2)c2ccccc21 | inconclusive: 12.6 µM [quencher, side channel, partial curve] | – |
| COc1cccc(CNS(=O)(=O)c2ccc(S(=O)(=O)NC3CC3)cc2)c1 | – | inactive: -3.38% |
| CC(C)C(=O)NC(c1cccs1)c1cc([N+](=O)[O-])c2cccnc2c1O (stereo not drawn) | inconclusive: 1.41 µM [fluorescent, side channel, partial curve] | – |
| CC1CCCN(S(=O)(=O)c2ccc([N+](=O)[O-])cc2)C1 (stereo not drawn) | inconclusive: 2.82 µM [quencher, side channel, partial curve] | – |
| Cc1ccccc1Nc1ccc2nonc2c1[N+](=O)[O-] | inconclusive: 2 µM [quencher, side channel, full curve] | – |
| Cc1cccc(-n2nc([N+](=O)[O-])c(N3CCN(C(=O)c4ccco4)CC3)[n+]2[O-])c1 | inconclusive: 15.8 µM [quencher, partial curve] | – |
| C[N+](C)(C)c1ccc(/C=N/Nc2nc(Cl)c(C#N)c(Cl)c2Cl)cc1 | inconclusive: 15.8 µM [quencher, side channel, partial curve] | – |
| CCOc1ccc(N=C/C=C/c2ccccc2)c(O)c1 | inconclusive: 8.91 µM [quencher, partial curve] | – |
| O=C(Nc1ccccc1)c1ccccc1NS(=O)(=O)c1ccc(Cl)s1 | – | inactive: 0.0885% |
| O=c1[nH]c2ccccc2n2c(C(F)(F)F)nnc12 | – | inactive: -2.19% |
| CCc1nc2cc([N+](=O)[O-])c([N+](=O)[O-])cc2[nH]1 | inconclusive: 7.94 µM [quencher, side channel, partial curve] | – |
| CCn1c(O)c2ccc(C(=O)N=NC(=O)c3ccccc3)cc2c1O | inconclusive: 10 µM [quencher, partial curve] | – |
| CCN(CC)S(=O)(=O)c1ccc(OC)c(NC(=S)Nc2cccc(C)c2)c1 | inconclusive: 5.62 µM [fluorescent, side channel, full curve, poor fit] | – |
| COc1cc(-c2cc(=O)c3ccccc3o2)ccc1O | inconclusive: 35.5 µM [quencher, side channel, single point] | – |

| Compound | Potency | activity change, negative = inhibition |
| --- | --- | --- |
| CCN(CC)CCN1C(=O)C(O)=C(C(C)=O)C1c1ccccc1[N+](=O)[O-] (stereo not drawn) | inconclusive: 15.8 µM [quencher, side channel, partial curve] | – |
| COc1ccc(/C=N\NC(=O)/C(=C\Nc2nccc(C)n2)NC(=O)c2ccccc2)cc1 | inconclusive: 17.8 µM [quencher, side channel, partial curve] | – |
| COc1ccc(N2CCN(CC(O)c3c[nH]c4ccc(OC)cc34)CC2C)cc1 (stereo not drawn) | – | inactive: -3.55% |
| COc1ccc(/C=N/NC(=O)c2ccccc2)cc1OS(=O)(=O)c1ccccc1 | inconclusive: 25.1 µM [quencher, side channel, single point] | – |
| COC(=O)c1ccc(NC(=O)CN(C)S(=O)(=O)c2ccc(OC)c(C)c2)cc1 | – | inactive: -4.8% |
| COc1ccc2cc(C(c3nnnn3C3CCCC3)N3CCc4ccccc4C3)c(=O)[nH]c2c1 (stereo not drawn) | inconclusive: 12.6 µM [quencher, side channel, partial curve] | – |
| CCCC(=O)Nc1ccc(C2C(=O)c3ccccc3C2=O)cc1 | inconclusive: 15.8 µM [quencher, side channel, partial curve] | – |
| COc1ccc(Cc2nc3ccc(C(=O)NCc4ncc(C)[nH]4)cc3o2)cc1OC | inconclusive: 25.1 µM [quencher, side channel, single point] | – |
| O=S(=O)(c1cccc2nsnc12)N1CCOCC1 | inconclusive: 15.8 µM [quencher, side channel, partial curve] | – |
| O=C(Nc1ccccc1)c1ccc(NC(=O)C2CC2)cc1 | – | inactive: -0.374% |
| CC(NC(=O)COc1ncnc2cc([N+](=O)[O-])ccc12)c1ccccc1 (stereo not drawn) | inconclusive: 2.51 µM [quencher, side channel, full curve] | – |
| CNC(=O)C(=O)NCCN1CCN(C(=O)c2ccc([N+](=O)[O-])cc2)CC1 | inconclusive: 10 µM [quencher, side channel, partial curve] | – |
| O=C(O)c1ccc(N=Nc2c(O)[nH]c3ccccc23)cc1 | inconclusive: 5.62 µM [quencher, side channel, full curve, poor fit] | – |
| CCOC(=O)c1cc(-c2nnc(-c3ccc(Oc4ccccc4)cc3)o2)c(C)nc1C | – | inactive: 3.77% |
| CCCN1C(=O)/C(=C/c2c(N3CCNC(=O)C3CC(=O)OCC)nc3c(C)cccn3c2=O)SC1=S (stereo not drawn) | – | inactive: 1.19% |
| COc1ccc(Nc2nnc(-c3ccc(C(=O)NCCO)cc3)c3ccccc23)cc1 | inconclusive: 17.8 µM [quencher, side channel, partial curve] | – |
| COc1ccc(N=C2SCC(c3ccc([N+](=O)[O-])cc3)=NN2CCO)cc1 | inconclusive: 25.1 µM [quencher, side channel, partial curve] | – |
| C=CCOc1ccc(/C=C2\SC(N)=NC2=O)cc1OC | inconclusive: 17.8 µM [quencher, side channel, partial curve] | – |
